In paper PMC11995724, “Antibiotic target discovery by integrated phenotypic and activity-based profiling of electrophilic fragments” (Cell chemical biology, 2025):
Hit rate of the full screen: of about 3,200 compounds, about 110 (3.4%) showed an effect of 50% or more. The list shows a part of the results.

tested on: T1, V. cholerae SAD30; parameters: species or system S. aureus MSSA476 (TSB) or V. cholerae SAD30 (LB); 384-well bacterial growth screen at 25 uM, OD600 relative to DMSO control; conditions: relative growth, OD600, LB; 25 µM; inhibitor
T1 construct: SAD30

SMILES	% of control remaining
C=CC(=O)NC1CCN(c2ccccc2S(=O)(=O)CC)CC1 [2-M03, N-{1-[2-(ethanesulfonyl)phenyl]piperidin-4-yl}prop-2-enamide]	99.3052%
C=CC(=O)N(C)CC(=O)NC(C)(C)c1nc(C)cs1 [3-E14, N-methyl-N-({[2-(4-methyl-1,3-thiazol-2-yl)propan-2-yl]carbamoyl}methyl)prop-2-enamide]	97.7357%
O=C(CCl)NCCN1C(=O)SC(=Cc2ccccc2F)C1=O [4-A10, 2-chloro-N-(2-{5-[(2-fluorophenyl)methylidene]-2,4-dioxo-1,3-thiazolidin-3-yl}ethyl)acetamide]	105.24%
COc1ccc2c(c1)OCCN(C(=O)C(C)Cl)C2 (stereo not shown) [7-E04, 2-chloro-1-(8-methoxy-2,3,4,5-tetrahydro-1,4-benzoxazepin-4-yl)propan-1-one]	86.04%
O=C(CCl)N1CCN(S(=O)(=O)c2cccc([N+](=O)[O-])c2)CC1 [4-C19, 2-chloro-1-[4-(3-nitrobenzenesulfonyl)piperazin-1-yl]ethan-1-one]	91.0934%
C=CC(=O)NC1CCCN(c2cc(N3CCOCC3)ncn2)C1 (stereo not shown) [1-A08, N-{1-[6-(morpholin-4-yl)pyrimidin-4-yl]piperidin-3-yl}prop-2-enamide]	90.284%
N#CC(C(=O)CCl)=C1Nc2cc(Cl)ccc2S1 [10-O08, 4-chloro-2-(5-chloro-2,3-dihydro-1,3-benzothiazol-2-ylidene)-3-oxobutanenitrile]	95.5387%
CC(Cl)C(=O)NCC(c1ccc(Cl)cc1)n1cccn1 (stereo not shown) [7-J05, 2-chloro-N-[2-(4-chlorophenyl)-2-(1H-pyrazol-1-yl)ethyl]propanamide]	79.4317%
N#CC(=Cc1cccc(F)c1F)C(=O)NCc1ccccc1 [8-B06, N-benzyl-2-cyano-3-(2,3-difluorophenyl)prop-2-enamide]	74.983%
O=C(CCl)Cc1cccc(F)c1 [10-C11, 1-chloro-3-(3-fluorophenyl)propan-2-one]	7.637%
CC(=O)c1ccc(NC(=O)CCl)cc1 [4-G07, N-(4-acetylphenyl)-2-chloroacetamide]	103.515%
Cn1cccc1C(=O)CCl [10-B04, 2-chloro-1-(1-methyl-1H-pyrrol-2-yl)ethan-1-one]	98.1882%
C=CC(=O)NCCNS(=O)(=O)c1cc(C)ccc1F [2-L11, N-[2-(2-fluoro-5-methylbenzenesulfonamido)ethyl]prop-2-enamide]	86.1816%
N#CC(=Cc1cn2cc(Cl)ccc2n1)C(=O)NC1CCCC1 [9-P15, 3-{6-chloroimidazo[1,2-a]pyridin-2-yl}-2-cyano-N-cyclopentylprop-2-enamide]	87.7634%
C=CC(=O)N(CC)CC(=O)N1CCCC(c2nccn2C)C1 (stereo not shown) [3-F03, N-ethyl-N-{2-[3-(1-methyl-1H-imidazol-2-yl)piperidin-1-yl]-2-oxoethyl}prop-2-enamide]	109.557%
C=CC(=O)Nc1ccccc1Cl [1-O10, N-(2-chlorophenyl)prop-2-enamide]	91.1809%
C=CC(=O)NC1CCC(OCc2cc(C)no2)CC1 (stereo not shown) [1-M08, N-{4-[(3-methyl-1,2-oxazol-5-yl)methoxy]cyclohexyl}prop-2-enamide]	88.3408%
NS(=O)(=O)c1cccc2cc(NC(=O)CCl)ccc12 [5-K16, 2-chloro-N-(5-sulfamoylnaphthalen-2-yl)acetamide]	109.11%
CC(Cl)C(=O)NC1CCN(S(C)(=O)=O)C1 (stereo not shown) [7-I15, 2-chloro-N-(1-methanesulfonylpyrrolidin-3-yl)propanamide]	82.6037%
C=CC(=O)N1CCC(c2cnn(C)c2)CC1 [2-I10, 1-[4-(1-methyl-1H-pyrazol-4-yl)piperidin-1-yl]prop-2-en-1-one]	86.9536%
CC(C)NC(=O)C(C#N)=Cc1ccc(C#N)cc1 [9-M11, 2-cyano-3-(4-cyanophenyl)-N-(propan-2-yl)prop-2-enamide]	88.9871%
Cc1ccc(C=C(C#N)C(=O)NCc2ccco2)o1 [8-P19, 2-cyano-N-[(furan-2-yl)methyl]-3-(5-methylfuran-2-yl)prop-2-enamide]	80.6934%
CC(Cl)C(=O)N1CC=C(C(F)(F)F)CC1 (stereo not shown) [5-J19, 2-chloro-1-[4-(trifluoromethyl)-1,2,3,6-tetrahydropyridin-1-yl]propan-1-one]	96.8372%
C=CC(=O)N1CCC(C(=O)N2CCN(CC(C)C)C(=O)C2C)CC1 (stereo not shown) [2-B08, 3-methyl-1-(2-methylpropyl)-4-[1-(prop-2-enoyl)piperidine-4-carbonyl]piperazin-2-one]	91.5854%
CCCn1c(N)c(C(=O)CCl)c(=O)[nH]c1=O [10-L10, 6-amino-5-(2-chloroacetyl)-1-propyl-1,2,3,4-tetrahydropyrimidine-2,4-dione]	102.708%
C=CC(=O)N1CCC(C(=O)N[C@@H]2CC[C@H](O)C2)(c2ccccc2)CC1 (racemic) [2-H16, rac-N-[(1R,3S)-3-hydroxycyclopentyl]-4-phenyl-1-(prop-2-enoyl)piperidine-4-carboxamide]	89.4239%
C=CC(=O)NCc1ccc(C(=O)N2CCC(c3nc(C)no3)C2)cc1 (stereo not shown) [2-P08, N-({4-[3-(3-methyl-1,2,4-oxadiazol-5-yl)pyrrolidine-1-carbonyl]phenyl}methyl)prop-2-enamide]	97.9157%
C=CC(=O)N1CCC(c2nc(C3CC3)no2)C1 (stereo not shown) [2-E09, 1-[3-(3-cyclopropyl-1,2,4-oxadiazol-5-yl)pyrrolidin-1-yl]prop-2-en-1-one]	93.9014%
